This is an account of results in patent US9714221B1 (priority 2016, dated 2017).

Test in all cases: cells
Common to all, as to settings: Homo sapiens, read-out: proliferation MCF7 (WT) IC50 (nM)

Test [1] relates to MCF7 cells (breast tumor cells) WT.
Test [2] relates to MCF7 cells expressing (and dependent) on mutant estrogen receptor Asp 538 Gly.
Test [3] concerns MCF7 cells expressing (and dependent) on mutant estrogen receptor Tyr 537 Ser.

`CC(F)(F)c1ccc(C2=C(c3ccc(O[C@H]4CCN(CCCF)C4)cc3)c3ccc(C(=O)O)cc3CCC2)cc1` [Example 219, 6-[4-(1,1-Difluoro-ethyl)-phenyl]-5-{4-[(S)-1-(3-fluoro-propyl)-pyrrolidin-3-yloxy]-phenyl}-8,9-dihydro-7H-benzocycloheptene-2-carboxylic acid]: the IC50 in test [1] amounted to 1 nM; in test [2], 9 nM; in test [3], 36 nM. Consider `CC1(C)Cc2cc(C3=C(c4ccc(O[C@H]5CCN(CCCF)C5)cc4)c4ccc(O)cc4CCC3)ccc2N1` [Example 70, 6-(2,2-dimethylindolin-5-yl)-5-[4-[(3S)-1-(3-fluoropropyl)pyrrolidin-3-yl]oxyphenyl]-8,9-dihydro-7H-benzo[7]annulen-2-ol], for which the IC50 in test [1] was 0.2 nM; in test [2], 1 nM; in test [3], 8 nM. As to `Oc1ccc2c(c1)CCCC(C1CCC(O)CC1)=C2c1ccc(O[C@H]2CCN(CCCF)C2)cc1` (stereo partly drawn) [Example 204, 5-[4-[(3S)-1-(3-fluoropropyl)pyrrolidin-3-yl]oxyphenyl]-6-(4-hydroxycyclohexyl)-8,9-dihydro-7H-benzo[7]annulen-2-ol], the IC50 in test [2] worked out at 0.3 nM. In the case of `COc1cc(C)c(C2=C(c3ccc(O[C@H]4CCN(CCCF)C4)cc3)c3ccc(O)cc3CCC2)cn1` [Example 91, 5-[4-[(3S)-1-(3-fluoropropyl)pyrrolidin-3-yl]oxyphenyl]-6-(6-methoxy-4-methyl-3-pyridyl)-8,9-dihydro-7H-benzo[7]annulen-2-ol], the IC50 in test [1] was found to be 0.1 nM.

For `Cc1ccc(C2=C(c3ccc(O[C@H]4CCN(CCCF)C4)cc3)c3ccc(O)cc3CCC2)cc1F` [Example 35, 6-(3-fluoro-4-methyl-phenyl)-5-[4-[(3S)-1-(3-fluoropropyl)pyrrolidin-3-yl]oxyphenyl]-8,9-dihydro-7H-benzo[7]annulen-2-ol], the IC50 in test [1] is 0.2 nM. In the case of `O=C(O)c1ccc2c(c1)CCCC(c1ccc(Cl)c(F)c1)=C2c1ccc(O[C@H]2CCN(CCCF)C2)cc1` [Example 53, 6-(4-chloro-3-fluoro-phenyl)-5-[4-[(3S)-1-(3-fluoropropyl)pyrrolidin-3-yl]oxyphenyl]-8,9-dihydro-7H-benzo[7]annulene-2-carboxylic acid], the IC50 in test [1] is 10 nM.

`COc1c(F)cccc1C1=C(c2ccc(O[C@H]3CCN(CCCF)C3)cc2)c2ccc(O)cc2CCC1` [Example 41, 6-(3-fluoro-2-methoxy-phenyl)-5-[4-[(3S)-1-(3-fluoropropyl)pyrrolidin-3-yl]oxyphenyl]-8,9-dihydro-7H-benzo[7]annulen-2-ol]: the IC50 in test [1] is 0.2 nM. Same read-out and setting: with `Oc1ccc2c(c1)CCCC(c1cnc3[nH]ccc3c1)=C2c1ccc(O[C@H]2CCN(CCCF)C2)cc1` [Example 22, 5-[4-[(3S)-1-(3-fluoropropyl)pyrrolidin-3-yl]oxyphenyl]-6-(1H-pyrrolo[2,3-b]pyridin-5-yl)-8,9-dihydro-7H-benzo[7]annulen-2-ol] the figure was 6 nM; with `Oc1ccc2c(c1)CCCC(c1ccc(OC(F)F)cc1)=C2c1ccc(O[C@H]2CCN(CCCF)C2)cc1` [Example 69, 6-[4-(difluoromethoxy)phenyl]-5-[4-[(3S)-1-(3-fluoropropyl)pyrrolidin-3-yl]oxyphenyl]-8,9-dihydro-7H-benzo[7]annulen-2-ol], 0.3 nM; with `Cn1ccc2cc(C3=C(c4ccc(O[C@H]5CCN(CCCF)C5)cc4)c4ccc(O)cc4CCC3)ccc21` [Example 126, 5-[4-[(3S)-1-(3-fluoropropyl)pyrrolidin-3-yl]oxyphenyl]-6-(1-methylindol-5-yl)-8,9-dihydro-7H-benzo[7]annulen-2-ol], 1 nM.

For `Oc1ccc2c(c1)CCCC(c1ccc3cc[nH]c3c1)=C2c1ccc(O[C@H]2CCN(CCCF)C2)cc1` [Example 19, 5-[4-[(3S)-1-(3-fluoropropyl)pyrrolidin-3-yl]oxyphenyl]-6-(1H-indol-6-yl)-8,9-dihydro-7H-benzo[7]annulen-2-ol], the IC50 in test [1] was 5 nM.

`Nc1ncc(C2=C(c3ccc(O[C@H]4CCN(CCCF)C4)cc3)c3ccc(O)cc3CCC2)cn1` [Example 141, 6-(2-aminopyrimidin-5-yl)-5-[4-[(3S)-1-(3-fluoropropyl)pyrrolidin-3-yl]oxyphenyl]-8,9-dihydro-7H-benzo[7]annulen-2-ol]: the IC50 in test [1] amounted to 0.3 nM. As for `Oc1ccc2c(c1)CCCC(C1CCC(F)(F)CC1)=C2c1ccc(O[C@H]2CCN(CCCF)C2)cc1` [Example 208, 6-(4,4-difluorocyclohexyl)-5-[4-[(3S)-1-(3-fluoropropyl)pyrrolidin-3-yl]oxyphenyl]-8,9-dihydro-7H-benzo[7]annulen-2-ol], in test [1], the IC50 came out at 0.1 nM. For `O=S(=O)(c1ccc(C2=C(c3ccc(O[C@H]4CCN(CCCF)C4)cc3)c3ccc(O)cc3CCC2)cc1)C(F)(F)F` [Example 166, 5-[4-[(3S)-1-(3-fluoropropyl)pyrrolidin-3-yl]oxyphenyl]-6-[4-(trifluoromethylsulfonyl)phenyl]-8,9-dihydro-7H-benzo[7]annulen-2-ol], the IC50 in test [1] was determined as 0.8 nM.
